# Source: the supplement of paper PMC9135407
# Where “and” joins values, the source holds several entries; their conditions need not be identical. Identical values can stand only once. Counter-ions that a name gives are not always drawn. Hit rate of the full screen: of about 5,800 compounds, about 620 (11%) showed activity.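 How the source made its calls: active = score above a cut-off or among the top three wells of a plate; in these data no inactive exceeds 0.85.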 This is a selection; strong and weak results do not stand in their true shares.
# Test system: primary human hepatic stellate cells (donor 1)
# Experiment: scaled lipid accumulation score (0 = DMSO-like, 1 = nortriptyline-like); higher = stronger HSC inactivation (lipid re-accumulation), active = hit call of the paper
# Conditions: 48 h
# [1] = library stock concentration: 80 uM
# [2] = library stock concentration: 400 uM
# [3] = library stock concentration: 2 mM
# [4] = library stock concentration: 3.33 mM
# [5] = library stock concentration: 10 mM
# [6] = library stock concentration: 5.9 mM
# [7] = library stock concentration: 4.9 mM
# [8] = library stock concentration: 1 mM
structure (smiles),measurement,setting,value
COc1cc2c(Nc3ccc(NC(=O)c4ccccc4)cc3)ncnc2cc1OCCCN1CCOCC1 [listing 1 of 2 here],scaled lipid accumulation score,[1],inactive: ≤ -0.001
same,scaled lipid accumulation score,[2],inactive: ≤ -0.009
same,scaled lipid accumulation score,[3],inactive: 0.256
O=C(O)[C@]1(Cc2cccc(Nc3nccs3)n2)CC[C@@H](Oc2cccc(Cl)c2F)CC1,scaled lipid accumulation score,[4],inactive: ≤ 0
same,scaled lipid accumulation score,[5],inactive: 0.039
CC(Cc1cccc(C(F)(F)F)c1)NCCOC(=O)c1ccccc1 (centres undefined) [Benfluorex hydrochloride],scaled lipid accumulation score,,inactive: 0.522
same,scaled lipid accumulation score,[5],inactive: ≤ 0
C=C1CC[C@H](O)C/C1=C/C=C1\CCC[C@]2(C)[C@@H]([C@H](C)CCCC(C)C)CC[C@@H]12 [Cholecalciferol],scaled lipid accumulation score,,inactive: 0.021
same,scaled lipid accumulation score,library stock concentration: 5.2 mM,inactive: ≤ 0
NC1(C(=O)O)CCCCC1 [1-Amino-1-cyclohexanecarboxylic acid hydrochloride],scaled lipid accumulation score,[5],inactive: 0.029
NNCCc1ccccc1 [Phenelzine],scaled lipid accumulation score,[5],inactive: ≤ 0
NNCCc1ccccc1 [Phenelzine sulfate],scaled lipid accumulation score,,inactive: 0.022
same,scaled lipid accumulation score,[5],inactive: 0.002 and inactive: ≤ 0
NNCCc1ccccc1,scaled lipid accumulation score,[5],inactive: ≤ 0
COC(=O)C1=C(C)NC(C)=C(C(=O)OCCCN2CCC(c3ccccc3)(c3ccccc3)CC2)[C@@H]1c1cccc([N+](=O)[O-])c1 [(R)-(-)-Niguldipine hydrochloride],scaled lipid accumulation score,[5],inactive: ≤ -0.006
CC(=O)OCC(=O)[C@@]1(O)CC[C@H]2[C@@H]3CCC4=CC(=O)C=C[C@]4(C)[C@@]3(Cl)[C@@H](Cl)C[C@@]21C,scaled lipid accumulation score,[5],inactive: ≤ 0
CCCCN(CCCC)CCCOC(=O)c1ccc(N)cc1 [Butacaine],scaled lipid accumulation score,,inactive: ≤ 0
same,scaled lipid accumulation score,[5],inactive: 0.192
Cc1ccc(C(=O)c2ccc(CC(=O)O)n2C)cc1 [Tolmetin sodium salt dihydrate],scaled lipid accumulation score,,inactive: ≤ 0
Cc1ccc(C(=O)c2ccc(CC(=O)O)n2C)cc1 [Tolmetin sodium],scaled lipid accumulation score,library stock concentration: 7.2 mM,inactive: ≤ 0
same,scaled lipid accumulation score,[5],inactive: ≤ 0
COC(=O)Nc1nc2cc(C(=O)c3cccs3)ccc2[nH]1 [Nocodazole],scaled lipid accumulation score,[4],inactive: 0.021
same,scaled lipid accumulation score,library stock concentration: 6.6 mM,inactive: 0.262
CC[N+](C)(CC)CCOC(=O)C1c2ccccc2Oc2ccccc21 [Methantheline bromide],scaled lipid accumulation score,,inactive: ≤ 0
O=C(O)CN1C(=O)c2cccc3cccc(c23)C1=O [Alrestatin],scaled lipid accumulation score,library stock concentration: 7.8 mM,inactive: 0.015
same,scaled lipid accumulation score,[5],inactive: ≤ 0
CCCn1ncc(-c2ccnc(NC3CC(C)(C)NC(C)(C)C3)n2)c1C,scaled lipid accumulation score,[5],active: 0.86
CC(=O)OCC(=O)[C@@]1(O)CC[C@H]2[C@@H]3CCC4=CC(=O)CC[C@]4(C)[C@@]3(F)[C@@H](O)C[C@@]21C [Fludrocortisone acetate],scaled lipid accumulation score,,inactive: 0.002
same,scaled lipid accumulation score,library stock concentration: 4.7 mM,inactive: ≤ -0.001
same,scaled lipid accumulation score,[5],inactive: ≤ 0
O=C(O)CCCCCCCC(=O)O [Azelaic acid],scaled lipid accumulation score,[5],inactive: 0.136 and inactive: ≤ 0
same,scaled lipid accumulation score,library stock concentration: 10.6 mM,inactive: ≤ 0
COc1cc(Br)c(Nc2nc(-c3c(C)nc4ncccn34)cs2)c(Br)c1,scaled lipid accumulation score,[4],inactive: 0.014 and inactive: ≤ -0.009
same,scaled lipid accumulation score,[5],inactive: 0.744 and inactive: 0.132
COc1ccc2c3c([nH]c2c1)[C@H]1C[C@H]2[C@H](C[C@@H](O)[C@H](OC)[C@H]2C(=O)O)CN1CC3 [Reserpinic acid hydrochloride],scaled lipid accumulation score,,inactive: ≤ 0
CN1CCN(C2=Nc3cc(Cl)ccc3Nc3ccccc32)CC1 [Clozapine],scaled lipid accumulation score,[5],active: 0.967
NS(=O)(=O)c1cc(C2(O)NC(=O)c3ccccc32)ccc1Cl (centres undefined) [Chlorthalidone],scaled lipid accumulation score,,inactive: ≤ 0
same,scaled lipid accumulation score,[6],inactive: ≤ -0.001
same,scaled lipid accumulation score,[5],inactive: ≤ 0
CCCCCCCCCCCCCCCC(=O)OC/C=C(C)/C=C/C=C(C)/C=C/C1=C(C)CCCC1(C)C [Retinyl palmitate],scaled lipid accumulation score,[5],inactive: 0.112
C=CC(N)CCC(=O)O (centres undefined) [(?)-gamma-Vinyl GABA],scaled lipid accumulation score,[5],inactive: ≤ 0
C=CC(N)CCC(=O)O (centres undefined) [Vigabatrin],scaled lipid accumulation score,,inactive: 0.039
same,scaled lipid accumulation score,library stock concentration: 15.5 mM,inactive: 0.02
O=C(O)Cc1c2ccccc2n2c1[nH]c(=O)c1ccccc12,scaled lipid accumulation score,[1],inactive: ≤ -0.001
same,scaled lipid accumulation score,[2],inactive: ≤ -0.001
same,scaled lipid accumulation score,[3],inactive: ≤ -0.001
same,scaled lipid accumulation score,[5],inactive: ≤ -0.001
CC(=O)OCC(=O)[C@@]1(O)CC[C@H]2[C@@H]3CCC4=CC(=O)CC[C@]4(C)[C@H]3[C@@H](O)C[C@@]21C [Hydrocortisone 21-acetate],scaled lipid accumulation score,[7],inactive: ≤ 0
CC(=O)OCC(=O)[C@@]1(O)CC[C@H]2[C@@H]3CCC4=CC(=O)CC[C@]4(C)[C@H]3[C@@H](O)C[C@@]21C [Hydrocortisone acetate],scaled lipid accumulation score,[7],inactive: ≤ -0.001
same,scaled lipid accumulation score,[5],inactive: ≤ 0
CC(=O)OCC(=O)[C@@]1(O)CC[C@H]2[C@@H]3CCC4=CC(=O)CC[C@]4(C)[C@H]3[C@@H](O)C[C@@]21C [Cortell],scaled lipid accumulation score,[5],inactive: ≤ 0
Cc1ncc(C[n+]2csc(CCO)c2C)c(N)n1 [Thiamine hydrochloride],scaled lipid accumulation score,,inactive: 0.067
Cc1ncc(C[n+]2csc(CCO)c2C)c(N)n1 [Thiamine],scaled lipid accumulation score,[6],inactive: ≤ 0
CC(C)c1c(C(=O)Nc2ccccc2)c(-c2ccccc2)c(-c2ccc(F)cc2)n1CC[C@@H](O)C[C@@H](O)CC(=O)O [Atorvastatin calcium],scaled lipid accumulation score,[5],inactive: 0.003
CC(C)c1c(C(=O)Nc2ccccc2)c(-c2ccccc2)c(-c2ccc(F)cc2)n1CC[C@@H](O)C[C@@H](O)CC(=O)O [Atorvastatin Calcium],scaled lipid accumulation score,[4],inactive: 0.322
same,scaled lipid accumulation score,[5],inactive: 0.32
CC(C)c1c(C(=O)Nc2ccccc2)c(-c2ccccc2)c(-c2ccc(F)cc2)n1CC[C@@H](O)C[C@@H](O)CC(=O)O [Atorvastatin calcium salt trihydrate],scaled lipid accumulation score,[5],inactive: 0.743
CCN[C@H]1CN(CCCOC)S(=O)(=O)c2sc(S(N)(=O)=O)cc21 [Brinzolamide],scaled lipid accumulation score,,inactive: ≤ 0
same,scaled lipid accumulation score,[4],inactive: ≤ 0
same,scaled lipid accumulation score,[5],inactive: ≤ -0.001
CCCCCC(O)/C=C/C1C(O)CC(O)C1CCCCC(CC(=O)O)OC (stereo not drawn) [3-methoxy Prostaglandin F1.alpha.],scaled lipid accumulation score,[8],inactive: ≤ 0
NCCc1c[nH]cn1 [Histamine],scaled lipid accumulation score,library stock concentration: 45 mM,inactive: ≤ -0.008
NCCc1c[nH]cn1 [Histamine 2HCl],scaled lipid accumulation score,[4],inactive: ≤ 0
same,scaled lipid accumulation score,[5],inactive: ≤ -0.001
NCCc1c[nH]cn1 [Histamine dihydrochloride],scaled lipid accumulation score,[5],inactive: ≤ -0.07 and inactive: 0.062 and inactive: ≤ 0
same,scaled lipid accumulation score,library stock concentration: 10.9 mM,inactive: ≤ -0.001
OC(Cn1cncn1)(Cn1cncn1)c1ccc(F)cc1F [Fluconazole],scaled lipid accumulation score,[4],inactive: ≤ 0
same,scaled lipid accumulation score,[5],inactive: 0.048 and inactive: ≤ -0.027 and inactive: ≤ 0
CCCOc1cc(N)ccc1C(=O)OCCN(CC)CC [Propoxycaine hydrochloride],scaled lipid accumulation score,,inactive: ≤ 0
O=C(c1cc2cc(O)ccc2[nH]1)c1cc2cc(O)ccc2[nH]1 [Flt-3 Inhibitor II],scaled lipid accumulation score,[4],inactive: ≤ 0
CC(=O)[C@@]1(O)CC[C@H]2[C@@H]3C=C(Cl)C4=CC(=O)[C@@H]5C[C@@H]5[C@]4(C)[C@H]3CC[C@@]21C [Cyproterone],scaled lipid accumulation score,[5],inactive: 0.093
C[C@@H](NCCCc1cccc(C(F)(F)F)c1)c1cccc2ccccc12 [Cinacalcet HCl],scaled lipid accumulation score,[4],inactive: 0.207
same,scaled lipid accumulation score,[5],inactive: 0.351
CC(=O)Nc1cccc(-n2c(=O)n(C3CC3)c(=O)c3c(Nc4ccc(I)cc4F)n(C)c(=O)c(C)c32)c1,scaled lipid accumulation score,[1],inactive: ≤ -0.009
same,scaled lipid accumulation score,[2],inactive: ≤ -0.003
same,scaled lipid accumulation score,[3],inactive: 0.049
same,scaled lipid accumulation score,[4],inactive: ≤ 0
same,scaled lipid accumulation score,[5],inactive: ≤ 0 and inactive: 0.058
Nc1[nH]cnc2ncnc1-2 [Adenine],scaled lipid accumulation score,[5],inactive: 0.02
Nc1[nH]cnc2ncnc1-2 [Adenine HCl],scaled lipid accumulation score,[4],inactive: ≤ 0
same,scaled lipid accumulation score,[5],inactive: ≤ 0
CO[C@@H](C(=O)N1Cc2[nH]nc(NC(=O)c3ccc(N4CCN(C)CC4)cc3)c2C1)c1ccccc1,scaled lipid accumulation score,[5],active: 0.915
CC[N+](C)(C)c1cccc(O)c1 [Edrophonium chloride],scaled lipid accumulation score,,inactive: ≤ 0
same,scaled lipid accumulation score,library stock concentration: 9.9 mM,inactive: ≤ 0
same,scaled lipid accumulation score,[5],inactive: ≤ -0.07 and inactive: ≤ -0.027
O=C1NC(=O)C(c2cnc3ccccn23)=C1c1cn2c3c(cc(F)cc13)CN(C(=O)N1CCCCC1)CC2,scaled lipid accumulation score,[2],inactive: 0.836
same,scaled lipid accumulation score,[3],inactive: 0.699
CC(CN1c2ccccc2Sc2ccccc21)N(C)C.Cl (centres undefined) [Promethazine hydrochloride],scaled lipid accumulation score,[5],active: 0.888
Cc1ccc(S(=O)(=O)c2ccc([N+](=O)[O-])o2)cc1,scaled lipid accumulation score,[4],inactive: 0.556
same,scaled lipid accumulation score,[5],inactive: 0.799
C[C@@H](O)CN(CCN(C[C@@H](C)O)C[C@@H](C)O)C[C@@H](C)O,scaled lipid accumulation score,[5],inactive: ≤ 0
Cc1cn[nH]c1 [4-Methylpyrazole hydrochloride],scaled lipid accumulation score,[5],inactive: ≤ -0.055
Cc1cn[nH]c1 [Fomepizole hydrochloride],scaled lipid accumulation score,library stock concentration: 16.9 mM,inactive: ≤ 0
COc1ccc2c(c1)CCC1C2CCC2(C)C(NCCCCCCN3C(=O)C=CC3=O)CCC12 (centres undefined),scaled lipid accumulation score,[8],inactive: ≤ 0
same,scaled lipid accumulation score,[5],inactive: 0.397
COc1cc2c(Nc3ccc(NC(=O)c4ccccc4)cc3)ncnc2cc1OCCCN1CCOCC1 [listing 2 of 2 here],scaled lipid accumulation score,[5],active: 1.03
COC(=O)C1=C(C)NC(C)=C([N+](=O)[O-])C1c1ccccc1C(F)(F)F (centres undefined),scaled lipid accumulation score,[5],inactive: 0.011 and inactive: ≤ -0.006
same,scaled lipid accumulation score,library stock concentration: 14 mM,inactive: ≤ -0.021
COc1cc(C(=O)OCCCN2CCCN(CCCOC(=O)c3cc(OC)c(OC)c(OC)c3)CC2)cc(OC)c1OC [Dilazep dihydrochloride],scaled lipid accumulation score,,inactive: 0.164
